Experimental data taken from the RNAGym collection of RNA variant scans (doi:10.1073/pnas.2313332121).
This sample is rich in variants without activity.

B1: TPR 5TU (parent)
chain: GGAUCUUCUCGAUCUAACAAAAAAGACAAAUCUGCCACAAAGCUUGAGAGCAUCUUCGGAUGCAGAGGCGGCAGCCUUCGGUGGCGCGAUAGCGCCAACGUUCUCAACUAUGACACGCAAAACGCGUGCUCCGUUGAAUGGAGUUUAUCAUG

Variants of: B1
Experiment: polymerase ribozyme fitness, log enrichment relative to wild type (log ratio); higher = more active; in vitro selection for triplet polymerase activity
Procedure, shortened: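 One round of in vitro selection, in triplicate, was applied to PCR-built, transcribed mutant libraries of each subunit of a heterodimeric triplet polymerase ribozyme. The steps were annealing with a biotinylated primer, partner subunit and triplets, incubation frozen at −7 °C, gel excision of extended constructs, streptavidin-bead capture and RT-PCR. Fitness is the logarithm, base 2, of genotype enrichment over wild-type enrichment from inverse-variance-weighted replicate averages of Illumina-sequenced inputs and outputs, keeping genotypes with ≥10 input reads and ≥1 read per output.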

Polymerase ribozyme fitness (log ratio), ≤ -4.2:
GGAUCUUCUCGAUCUAACAAAAAAGACAAAUCUGCCACAAAGCUUGAGGGCAUCUUCGGAUGCAGAGGCGGCGGCCUUCGGUGGAGCGAUAGCGCCAACGUACUCAACUAUGACACGCAAAACGCGUGCUCCGUUGAAUGGAGUUUAUCAUG [A49G A73G C85A U102A]
GGAUCUUCUCGAUCUAACAAAAAAGACAAAUCUGCCACAAAGCUUGAGCGCAUCUUCGGAUGCAGAGGCGGCAGCCUUCGGUGGCGCGAUAGCUCCAGCGUUCUCAACUAUGACACGCAAAACGCGUGCUCCGUUGAAUGGCGUUUAUCAUG [A49C G94U A98G A142C]
GGAUCUUCUCGAUCUAACAAAAAAGACAAAUCUGCCACAAAGCUUGAGCGCAUUUUCGGUUGCAGAGGCGGCAGCCUUCGGUGGCGCGAUCGCGCCAACAUUCUCAACUAUGACACGCAAAACGCGUGCUCCGUUUAACGGAGUUUAUCAUG [A49C C54U A60U A91C G100A G136U U139C]
GGAUCUUCUCGAUCUAACAAAAAAGACAAAUCUGCCACAAAGCUUGAGGGCAUCUUUGGAUGCAGAGGCGGCAGCCUCCGGUGGCGCGAUAGGGCCAACGUUCUCAACUAUGACACGCAAAACGCGUGCUCCGUUGAAUGGAGUUUAUCAUG [A49G C57U U78C C93G]
GGAUCUUCUCGAUCUAACAAAAAAGACAAAUCUGCCACAAAGCUUGAGCGCAUCUUCGGAUGCAGAGGCGGCAGCCUUCGGUGUCGCGAUAGCGCCAACGUUCUCAACUAUGACACGCAAAACGUGUGCUCCGUUGGAUGGAGUUUAUCAUG [A49C G84U C125U A137G]
GGAUCUUCUCGAUCUAACAAAAAAGACAAAUCUGCCACAAAGCUUGAGGGCAUCUUCGGAUGCAGAGGCGGCUGCCUUCGGUGGCGCGAAAGCGCCAAGGUUCUCAACUAUGAGACGCAAAACGCGUGCUCCGUUGAAUCGAGUUUAUCAUG [A49G A73U U90A C99G C114G G140C]
GGAUCUUCUCGAUCUAACAAAAAAGACAAAUCUGCCACAAAGCUUGAGGGCAUCUUCGGAUGCAGUGGCGGCAGCCUUCGGUGGCGCGAUAGCGCAAACGGUCUCAACUAUGACACGCAAAACGCGUGCUCCGUUGAAUGGAGUUUACUAUG [A49G A66U C96A U101G U148C C149U]
GGAUCUUCUCGAUCUAACAAAAAAGACAAAUCUGCCACAAAGCUUGAGCGCAUCUUCGGAUGCAGAGGCGGCAACCUUCGGUGGAGCGAUAGCGCCAACGUUCUCAAAUAUGACACGCAAAACGCGUGCUCCGUUGAAUGGAGUUUAUCAUG [A49C G74A C85A C108A]
GGAUCUUCUCGAUCUAACAAAAAAGACAAAUCUGCCACAAAGCUUGAGCGCAUCUUCGGAUGCAGAGGCUGCAGCCUUCGGUGGCGCGAUAGCGCCAUCGUUCUCAACUAUGACACGCAAAACGCGUGCUCCUUUGAAUCGAGUUUAUCAUG [A49C G70U A98U G133U G140C]
GGAUCUUCUCGAUCUAACAAAAAAGACAAAUCUGCCACAAAGCUUGAGCGCAUCUUCGGAUGCAGAGGCGGCAGCCUUCGGUGGCGCGAUAUCGCCAACGUUCUCAACUAUGACACGCAAAACGCGUGCUCCGUUGAAUGGAGUUUAUCAUG [A49C G92U]
GGAUCUUCUCGAUCUAACAAAAAAGACAAAUCUGCCACAAAGCUUGAGCGAAUCUUCGGAUGCAGAGGCGGCAGCCUUCGGUGGCGCGAUAGCACCAACGUUCUCAACGAUGACACGCAAAACGCGUGCUCCGUUGAAUGGAGUUUAUCAUG [A49C C51A G94A U109G]
GGAUCUUCUCGAUCUAACAAAAAAGACAAAUCUGCCACAAAGCUUGAGCGCAUCUUCGGAUGCAGAGGCGGCAGCCUUCGGUGGCUCGAUAGCGCCAACUUUCUCAACUAUGACACGCCAAACGCGUGCGCCGUUGAAUUGAGUUUAUCAUG [A49C G86U G100U A119C U130G G140U]
GGAUCUUCUCGAUCUAACAAAAAAGACAAAUCUGCCACAAAGCUUGAGCGCAGCUAAGGAUGCAGAGGCGGCAGCUUUCGGUGGCGCGAUAACGCCACCGGUCUCAACUAUGACACGCAAAACGCGUGCUCCGUUGAAUGGAGUUUAUCAUG [A49C U53G U56A C57A C76U G92A A98C U101G]
GGAUCUUCUCGAUCUAACAAAAAAGACAAAUCUGCCACAAAGCUUGAGCGCAUCAUGGGAUGCUGAGGCGGUAGCCUUCGGGGGCGCGAUAGCGCCAACGUUCUCAACUAUGACAUGCAAAACGCGUGCUCCGUUGAAUGGAGUUUAUCAUG [A49C U55A C57G A64U C72U U82G C116U]
GGAUCUUCUCGAUCUAACAAAAAAGACAAAUCUGCCACAAAGCUUGAGCGCAUCUUCGGAUGCAGAGGCGGCAGCCUUCGGUGGCGAGAUAGCGCCAACGUUCUCAACUAUGACACGCAAAACGCGUGCUCCGUUGAAUGGAGUUUAUCAUG [A49C C87A]
GGAUCUUCUCGAUCUAACAAAAAAGACAAAUCUGCCACAAAGCUUGAGCGCAUCUUCGGAUGCAGAGUCGACAGCCUGCGGUGGUGCGAUAGCGCAAACGUUCUCAACUAUGACACGAAAAACGCGUGCUCCGUUGAAUGAAGUUUAUCAUG [A49C G68U G71A U78G C85U C96A C118A G141A]
GGAUCUUCUCGAUCUAACAAAAAAGACAAAUCUGCCACAAAGCUUGAGCGCAUCUUAGGAUGCAGAGGCGGCAGCCUUCGGUGUCGCGAUAGCGCCAACGUUCUCAACUAUGACACGCAAAACGCGUGCUCCGUUUAAUGGAGUUUAUCAUG [A49C C57A G84U G136U]
GGAUCUUCUCGAUCUAACAAAAAAGACAAAUCUGCCACAAAGCUUGAGCGCAUCUUCGCAUGCAGAGGAGGCAGCCUUCGGUGACGCGAUAGCGCCAACGUUCUCAACUAUGACACGCAAAACGCGUGCUCCGUUGACUGGAGUUUAUCAUG [A49C G59C C69A G84A A138C]
GGAUCUUCUCGAUCUAACAAAAAAGACAAAUCUGCCACAAAGCUUGAGCGCAUCUUCGGAUGCAGAGGCGGCAGCCUUCGGUGGCGCGAUAGCGCCAACGUUCACAACUAGAACACGCAAAACGCGUGCUCCGUUGAAUGGAGUUUAUCAUG [A49C U104A U111G G112A]
GGAUCUUCUCGAUCUAACAAAAAAGACAAAUCUGCCACAAAGCUUGAGGGCAUCUUCGGAUGCAGAGGCGGCAGCCUUAGGUGGCGCGAUAGCGCCAACGUUCUCAACUAUGACACGCAAAACGCGUGCUCCGUUGAAUGGAGUUUAUCAUG [A49G C79A]
GGAUCUUCUCGAUCUAACAAAAAAGACAAAUCUGCCACAAAGCUUGAGCGCAUCUUCGGAUGCAGAGGCGGCAGCCUUCGGUGGGGCGAUAGCGCCAACGUUCUUCACUAUGACACGCAAAACGCGUGCUCCGUUGAAUGGAGUUUAUCAUG [A49C C85G C105U A106C]
GGAUCUUCUCGAUCUAACAAAAAAGACAAAUCUGCCACAAAGCUUGAGGGCUUCUUCGGAUGCAAAGGCGGCAGCCUUGGGUGGCGCGAUAGUGCCAACGUUCUCAACUAUGACACGCAAAACGCGUGCUCCGUUAAAUGGAGUUUAUCAUG [A49G A52U G65A C79G C93U G136A]
GGAUCUUCUCGAUCUAACAAAAAAGACAAAUCUGCCACAAAGCUUGAGCGCAUCUUCGGAUGCAGAGGCGGCAGCCUUCGGUGGCGCGAUAGAGCAAACGUUCUCAACUAUGACACGCAAAACGCGUGCUCCGUUGAUUGUAGUUUAUCAUG [A49C C93A C96A A138U G141U]
GGAUCUUCUCGAUCUAACAAAAAAGACAAAUCUGCCACAAAGCUUGAGCGCAUCUUCGGACGCAGAGGCGGCAGCCUUCGGUGGCGCGAUAGCGCCAACGUUCUCAACUAUGACACGCAAAACGCGUGCACCGUUGAAUGGAGUUUAUCAUG [A49C U61C U130A]
GGAUCUUCUCGAUCUAACAAAAAAGACAAAUCUGCCACAAAGCUUGAGCGCAUCUUGGGAUGCAGAGGCGGCAGCCUUCGGAGGCGCGAUAGCGCCAACGUUCUCAACUAUCACACGCAUAAAGCGUGCUCCCUUGAAUGGAGUUUAACAUG [A49C C57G U82A G112C A120U C123A G133C U148A]
GGAUCUUCUCGAUCUAACAAAAAAGACAAAUCUGCCACAAAGCUUGAGCGCAUCUUCGGAUGCAGAGACGGCAGCCUUAGGUGGCGCGAUGGCGCCAACGUUCUCAACUAUGACACGCAAAACGAGUGCUCCGUUGAAUGGAGUUUAUCGUG [A49C G68A C79A A91G C125A A150G]
GGAUCUUCUCGAUCUAACAAAAAAGACAAAUCUGCCACAAAGCUUGAGGGAAUCUUCGGAUGCAGAGGCGGCAGACUUCGGUGGCGCGAUAGGGCCAACGUUCUCACCUAUGACACGCAAAACGCGUGCUCCGUUGAAUGGAGUUUAUCAUG [A49G C51A C75A C93G A107C]
GGAUCUUCUCGAUCUAACAAAAAAGACAAAUCUGCCACAAAGCUUGAGGGCAUCUUCGGAUGCAGAGGCGGCUGCCUUCGGUGGCGCGGUAGAGCCAACGUUCUCAACUAUGACACGCAAAACGCGUGCUCCGUUGAAUGGAGUUUAUCAUG [A49G A73U A89G C93A]
GGAUCUUCUCGAUCUAACAAAAAAGACAAAUCUGCCACAAAGCUUGAGCGGAUCUUCGGAUGCAGAGGCGGCAGCCUUCGGUGGCGCGAUAGCGCCAACGUUCUCAACUAUGACACCCAAAACGCGUGCUCCGUUGAAUGGAGUUUAUCAUG [A49C C51G G117C]
GGAUCUUCUCGAUCUAACAAAAAAGACAAAUCUGCCACAAAGCUUGAGCGACUCUUCGGAUGCAGAGGCGGCAGCCUUCGGUGGCGCGAUAGCGCCAGCGUUCUCAACUAUGACACGCAAAACGCGUGCUCCGUUGAAUGGAGUUCAUCAUG [A49C C51A A52C A98G U146C]
GGAUCUUCUCGAUCUAACAAAAAAGACAAAUCUGCCACAAAGCUUGAGCGCAUCUUAGGAUGCAGAGGCGGCAGCCUUCGGUGGCGCCAUAGCGCCAACGUUCUCAACUAUGACACGCAAAACGCGUGCUCCGUUGAAUGGAGUUUAUCAUG [A49C C57A G88C]
GGAUCUUCUCGAUCUAACAAAAAAGACAAAUCUGCCACAAAGCUUGAGCACAUCUUCGGAUGCAGAGGCGGCAGCCUUCGGUGGCGCGAUAGCGCCAACGUUCUCAACUAUGACACGCAAAACGCGUGCUCCGUUGAAUGGAGUUUAUCAUG [A49C G50A]
GGAUCUUCUCGAUCUAACAAAAAAGACAAAUCUGCCACAAAGCUUGAGCGCAUCUUCGGAUGCAGAGGUGGCAGCCUUCGGGGGCGCCAUAGCGCCAAGGUUCUCAACUAUGACACGCAAAACGCGUGCUCCGUUAAAUGGAGUUUAUCAUG [A49C C69U U82G G88C C99G G136A]
GGAUCUUCUCGAUCUAACAAAAAAGACAAAUCUGCCACAAAGCUUGAGCGCAUCUUCGGAUGCAGAGGCGGCAGCCUUCUGUGACGCGAUAGCGCCAACGUUCUCAACUAUGACACGUAAAACGCGUGCUCCGUUGAAUGGAUUUUAUCAUG [A49C G80U G84A C118U G143U]
GGAUCUUCUCGAUCUAACAAAAAAGACAAAUCUGCCACAAAGCUUGAGCGCAUCGUCGGAUGCAGAGGCGGCAGCCUUCGGUGGCGCGAUAGCGCCAACGUUCUCAACUAUGACACGCAAAACGCGUGCUCCGUUGAAUGGAGUUUAUCAUG [A49C U55G]
GGAUCUUCUCGAUCUAACAAAAAAGACAAAUCUGCCACAAAGCUUGAGCGCAUCUUGGGAUGCAGAGGCGGCAUCCUUCGGUGGCGCGAUAGCGCCAACGUUCUCAACUAUGACACGCAAAGCGCGUGCUCCGUUGAAUGGAGUUUAUCAUG [A49C C57G G74U A122G]
GGAUCUUCUCGAUCUAACAAAAAAGACAAAUCUGCCACAAAGCUUGAGCGCAUCUUAGGAUGCAGAGGCGGCAGCCUUCGGUGGCGCGAUAGCGCCAACGUUCUCAACUAUGACACGCAAAACGCGUGCUCCGUUGAAUGGAGUUUAUCAUG [A49C C57A]
GGAUCUUCUCGAUCUAACAAAAAAGACAAAUCUGCCACAAAGCUUGAGGGCAUAUUCGGAUGCAGAGGCGGCAGGCUUCGGUGGCGCGAUUGCGCCAACGUUCUCAACUAUGACACGCAAAACGCGUGCUCCGUCGAAUGGAGUUUAACAUG [A49G C54A C75G A91U U135C U148A]
